# Assay results as given in PubChem BioAssay AID1476 (National Center for Advancing Translational Sciences (NCATS), 2009).
# Screen size: about 200,000 compounds; about 4,500 (2.2%) were called active. The shares of active, inactive and inconclusive entries below differ from those in the screen. Calls come from the whole dose curve; as a rule, active = well fitted inhibition curve with a large enough effect; inconclusive = small, poorly fitted or top-dose-only effect, or effect the other way; inactive = flat fitted curve, though single readings scatter. Potencies of inconclusive entries are doubtful fits and often do not repeat.
# Biological target: Cruzipain (Trypanosoma cruzi) (UniProt P25779)
# Assay: qHTS Assay for Promiscuous and Specific Inhibitors of Cruzain (without detergent); note: nearly all actives have a fitted effect of over 40% in size;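 for max response, negative = inhibition: plate controls were enzyme without inhibitor for no effect and buffer without enzyme for full effect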
# Conditions: purified cruzain, Z-FR-AMC fluorescence, no detergent
# Summary of the method: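 Purified cruzain at 1.5 nM, pre-incubated 15 min with compound at room temperature in 100 mM sodium acetate pH 5.5, 5 mM DTT, 0.00005% Triton X-100. Reaction started with 2 uM Z-FR-AMC; AMC fluorescence increase over 60 s gives rate.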
# Potency is the fitted concentration of half-maximal effect; tags give direction and shape of the fitted curve.
# Chain of UniProt P25779 (P25779 whole entry, looked up): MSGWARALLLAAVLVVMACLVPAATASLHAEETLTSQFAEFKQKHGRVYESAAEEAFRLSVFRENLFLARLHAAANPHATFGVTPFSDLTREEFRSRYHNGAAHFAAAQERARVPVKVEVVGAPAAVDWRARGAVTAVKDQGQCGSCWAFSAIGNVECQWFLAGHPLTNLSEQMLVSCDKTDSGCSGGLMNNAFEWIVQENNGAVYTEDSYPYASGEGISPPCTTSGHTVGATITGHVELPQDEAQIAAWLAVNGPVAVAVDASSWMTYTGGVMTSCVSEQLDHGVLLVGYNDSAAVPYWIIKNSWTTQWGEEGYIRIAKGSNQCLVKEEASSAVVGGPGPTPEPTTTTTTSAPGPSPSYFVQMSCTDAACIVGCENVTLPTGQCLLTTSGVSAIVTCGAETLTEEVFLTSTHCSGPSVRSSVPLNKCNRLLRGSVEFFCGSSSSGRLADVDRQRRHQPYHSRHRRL
SMILES,Potency,"max response, negative = inhibition"
Cc1cc(/C=N\NC(=O)c2cccs2)c(C)n1-c1ccc2ncccc2c1,"inconclusive: 31.6 µM [inhibitor, single point]",
CCOC(=O)c1scc(-c2ccccc2)c1S(=O)(=O)Nc1cc(Cl)c(OC)cc1OC,"inconclusive: 31.6 µM [inhibitor, single point]",
COc1ccc(-c2nnc(NC(=O)c3cc(C)on3)s2)cc1,"inconclusive: 10 µM [inhibitor, partial curve, poor fit]",
Cc1ccc2cc3cc(C(=O)NCc4ccco4)oc3nc2c1,"inconclusive: 25.1 µM [inhibitor, single point]",
OCCCc1nc2n(n1)C(c1cccs1)C=C(c1ccccc1)N2 (configuration not stated),"inconclusive: 39.8 µM [activator, single point]",
Cc1ccc(C(c2nnnn2Cc2cccs2)N2CCN(Cc3ccc4c(c3)OCO4)CC2)cc1 (configuration not stated),"inconclusive: 15.8 µM [activator, partial curve]",
Cc1ccccc1NC(=O)c1ccc(COc2ccc3c(C)cc(=O)oc3c2)cc1,active: 10 µM,
O=C(NC1CC1)c1ccc(S(=O)(=O)NCC2CCCCC2)cc1,"inconclusive: 39.8 µM [inhibitor, single point]",
CCOc1ccc(OCc2ccc(C(=O)Nc3cccnc3)o2)cc1,,inactive: -4.57%
CCOc1ccccc1NC(=O)c1c(NC(=O)c2cccc(C)c2)sc2c1CCC2,,inactive: 2.76%
CN(C)c1oc(COc2ccc(F)cc2)nc1C#N,,inactive: -1.12%
S=C(c1ccc(-c2ccccc2Cl)o1)N1CCOCC1,"inconclusive: 25.1 µM [inhibitor, partial curve]",
S=C(NNc1ccnc2cc(Cl)ccc12)Nc1ccccc1Cl,"inconclusive: 39.8 µM [inhibitor, single point]",
C#CCn1cc(/C=N/NC(=O)c2cc3ccccc3o2)c2ccccc21,,inactive: -17%
COc1ccc(NC(=O)c2cc(-c3ccc(C)o3)nc3ccccc23)cc1OC,"inconclusive: 20 µM [activator, single point]",
CCc1ccccc1NC(=O)C1CCCN(C(=O)c2cnn(-c3ccccc3)c2-n2cccc2)C1 (configuration not stated),"inconclusive: 31.6 µM [activator, single point]",
Cc1onc(C(=O)N2CCN(Cc3ccccc3)CC2)c1[N+](=O)[O-],,inactive: -11.4%
Cc1ccc(NC(=O)c2ccc(-n3c(C)nnc3C)cc2)cc1F,,inactive: -7.39%
COc1ccc(CCNC(=O)c2ccc3c(c2)ncn3-c2ccc(C)cc2C)cc1OC,"inconclusive: 39.8 µM [activator, single point]",
Cc1c(C(=O)N2CCN(c3ccccc3)CC2)sc2nc3n(c(=O)c12)CCC3,"inconclusive: 39.8 µM [activator, single point]",
Cc1cc(C)c(C#N)c(SCC(=O)c2cc(C)n(CCc3ccccc3)c2C)n1,"inconclusive: 39.8 µM [inhibitor, single point]",

SMILES,Potency,"max response, negative = inhibition"
CCCn1c(=O)c(C(=O)NCc2ccc(OC)c(OC)c2)c(O)c2ccccc21,"inconclusive: 20 µM [activator, partial curve]",
COc1cccc(CNC(=O)C2CCN(c3nnc(-n4c(C)ccc4C)s3)CC2)c1OC,,inactive: 13%
COc1ccc(-c2nc(SCCOc3ccccc3Cl)n3[nH]c(=O)cc3n2)cc1,"inconclusive: 10 µM [inhibitor, partial curve]",
Cc1cc(NC(=O)c2cc(-c3cccs3)on2)nn1Cc1ccc(Cl)cc1,"inconclusive: 39.8 µM [inhibitor, single point]",
O=C(c1ccc(S(=O)(=O)N2CCCCCC2)cc1)N1CCN(c2ccccn2)CC1,,inactive: -0.832%
COC(=O)c1ccc(C23CC4(C2)[C@H](CN(C)[C@@H]4c2ccccc2)C3c2ccccc2)cc1 (some centres not stated),,inactive: 1.35%
CC(=O)n1nc(-c2cccc(C)c2)nc1SCC(=O)Nc1ccccc1,"inconclusive: 39.8 µM [inhibitor, single point]",
CCN1CC=C2C(C#N)=C(N)C(C#N)(C#N)[C@H](c3ccoc3)[C@H]2C1,"inconclusive: 31.6 µM [inhibitor, single point]",
CCOc1ccccc1-c1ccc(C(=O)O)s1,"inconclusive: 22.4 µM [inhibitor, partial curve]",
Cc1ccc(O)c(NC(=O)c2cc3nc4c(c(C(F)(F)F)n3n2)CCc2ccccc2-4)c1,active: 10 µM,
CCC1=C(OC(=O)N(CC)CC)N2C(=O)OC(=NCC(=O)OC)[C@]2(Cc2ccccc2)[C@H]2C1=CC[C@H]1C(=O)N(C)C(=O)[C@H]12,"inconclusive: 25.1 µM [activator, partial curve]",
CCc1ccccc1N1CC(c2nc3ccccc3n2CCCCOc2ccccc2)CC1=O (configuration not stated),"inconclusive: 31.6 µM [activator, single point]",
Cc1ccc(C)c(NC(=O)CSc2nnc(CCCCCNC(=O)OC(C)(C)C)o2)c1,"inconclusive: 25.1 µM [activator, single point]",
CCCCSc1nc2sc3c(c2c(=O)[nH]1)CCC3,"inconclusive: 2.51 µM [inhibitor, full curve]",
COc1ccc(Cn2c(C(=O)O)c(CNCc3ccc(C)o3)c3ccc(C)cc32)cc1,"inconclusive: 39.8 µM [activator, single point]",
Cc1csc(NC(=O)CSc2nnc(Cn3c(=O)sc4ccccc43)n2-c2ccccc2)n1,"inconclusive: 31.6 µM [inhibitor, single point]",
CCOC(=O)Nc1ccc2c(c1)Nc1ccccc1S2,active: 25.1 µM,
FC(F)(F)c1cccc(NC(=S)N2CCN(c3cccc(C(F)(F)F)c3)CC2)c1,,inactive: -8.72%
COc1ccc2[nH]c(=O)c(CN(Cc3cccs3)S(=O)(=O)c3cccc4nsnc34)cc2c1,active: 31.6 µM,
CCC(=O)N1CCN(c2ccccc2NC(=O)c2ccc(OC)c(Cl)c2)CC1,"inconclusive: 39.8 µM [activator, single point]",
COc1ccc(C2C(C#N)=C(N)N(c3ccccc3)C3=C2C(=O)CCC3)cc1Cn1cc([N+](=O)[O-])cn1 (configuration not stated),active: 20 µM,
